Data from the supplement of paper PMC12217912.
Some of the results follow. Sequences were assembled here from the parent chain. Inactive controls read about 0.05.

B1: TEV protease; numbered along this chain (parent)
chain: MGESLFKGPRDYNPISSSICHLTNESDGHTTSLYGIGFGPFIITNKHLFRRNNGTLVVQSLHGVFKVKDTTTLQQHLVDGRDMIIIRMPKDFPPFPQKLKFREPQREERICLVTTNFQTKSMSSMVSDTSCTFPSGDGIFWKHWIQTKDGQCGSPLVSTRDGFIVGIHSASNFTNTNNYFTSVPKNFMELLTNQEAQQWVSGWRLNADSVLWGGHKVFMVKPEEPFQPVKEATQL

Variants of: B1
Experiment: raw area under fraction-flipped curve 0-4 h after induction (AUC4h, not background-subtracted), DNA-recorder readout of cleavage of the substrate (dimensionless); higher = more cleavage of the substrate by the protease variant
Conditions: temperature: 34 °C; time window: 0-4 h after rhamnose induction
Protocol: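 In vivo DNA recorder in E. coli TOP10(DE3) ΔrhaA at 34 °C. Each TEVp single-site mutant (parent TEVp 0) is paired with a single-site variant of the 7-mer TEVs (canonical ENLYFQ|S). The substrate sits between flexible linkers in a Bxb1-sfGFP-TEVs-SsrA fusion, so cleavage stabilises Bxb1 and speeds flipping of a recombination array, read by NGS. The value is the raw area under the fraction-flipped curve over 0-4 h after rhamnose induction (AUC4h), with ≥20 reads per time point. It is not background-subtracted; inactive controls average about 0.047.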
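Also: Bxb1 expression induced with 0.2% (w/v) L-rhamnose at OD600 near 0.5, cultures sampled hourly, flipped fraction per protease–substrate barcode pair counted by paired-end Illumina sequencing.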

| Variant | area with substrate ENLYFQA | area with substrate ENLYFQF | area with substrate ENLYFQK | area with substrate ENLYFQS | area with substrate ENLYFQG | area with substrate ENLYFQN | area with substrate ENLYFQI | area with substrate ENLYFQL | area with substrate ENLYFQR | area with substrate ENLYFQT |
| --- | --- | --- | --- | --- | --- | --- | --- | --- | --- | --- |
| G2T | 0.118 | 0.0617 | 0.068 | 0.129 |  |  |  |  |  |  |
| G35D | 0.0492 |  | 0.0433 | 0.0442 | 0.046 | 0.0412 |  |  |  |  |
| G35T | 0.0499 |  |  | 0.0455 |  | 0.0613 | 0.046 | 0.0399 | 0.0382 | 0.0384 |
| V210P | 0.0586 | 0.0774 | 0.0582 | 0.0645 |  |  |  | 0.0496 |  | 0.0625 |
| S201E | 0.104 |  | 0.0463 | 0.091 | 0.1 | 0.0676 | 0.0551 | 0.0585 | 0.0612 | 0.0742 |
| V78N | 0.0675 |  | 0.0637 | 0.068 |  |  | 0.0424 | 0.0578 |  | 0.0641 |
| E25S | 0.112 | 0.121 | 0.0652 | 0.107 | 0.11 | 0.0756 | 0.056 | 0.0609 |  | 0.0749 |
| Q97D | 0.0932 |  |  | 0.107 |  | 0.0862 |  | 0.0584 | 0.0591 |  |
| P93C | 0.105 |  | 0.0769 | 0.1 |  |  |  | 0.0746 | 0.0634 | 0.0581 |
| I84H | 0.0697 |  | 0.0604 | 0.0593 |  | 0.0489 |  | 0.0664 | 0.0512 | 0.0536 |
| V220S | 0.0954 |  | 0.0654 | 0.11 | 0.0992 |  | 0.0492 | 0.0499 | 0.0653 | 0.0678 |
| T119Q | 0.122 |  |  | 0.135 |  |  |  |  | 0.0435 |  |
| D27E | 0.123 |  | 0.064 | 0.105 | 0.105 | 0.0548 |  | 0.015 | 0.0542 | 0.0603 |
| T181K | 0.0573 | 0.059 | 0.062 | 0.059 |  | 0.049 | 0.0591 | 0.0599 | 0.0497 |  |
| L190D | 0.0834 | 0.06 | 0.0721 | 0.0855 |  | 0.0503 |  | 0.0661 | 0.0411 | 0.056 |
| T176Q | 0.072 |  | 0.0515 | 0.0785 | 0.0715 |  | 0.054 |  |  | 0.0412 |
| V113W | 0.0814 |  |  | 0.0899 |  | 0.0682 |  | 0.0791 | 0.0484 |  |

| Variant | area with substrate ENLYFQA | area with substrate ENLYFQF | area with substrate ENLYFQK | area with substrate ENLYFQS | area with substrate ENLYFQG | area with substrate ENLYFQN | area with substrate ENLYFQI | area with substrate ENLYFQL | area with substrate ENLYFQR | area with substrate ENLYFQT |
| --- | --- | --- | --- | --- | --- | --- | --- | --- | --- | --- |
| G153M | 0.0352 |  | 0.0434 | 0.0508 |  | 0.0468 | 0.0465 | 0.0499 | 0.0687 |  |
| G153I | 0.0528 | 0.0556 |  | 0.0488 |  |  |  | 0.0448 | 0.0456 | 0.0564 |
| T115R | 0.153 |  |  | 0.117 |  |  | 0.0519 | 0.07 | 0.0561 |  |
| R102E | 0.141 |  |  | 0.0554 |  | 0.0398 | 0.0464 | 0.0748 |  |  |
| E103S | 0.0837 |  | 0.0748 | 0.104 |  |  |  |  | 0.0665 | 0.0684 |
| E103I | 0.089 |  | 0.0695 | 0.0993 | 0.0909 | 0.0795 | 0.0582 | 0.0604 | 0.0588 | 0.0646 |
| K66H | 0.162 |  | 0.0653 | 0.109 | 0.0905 | 0.0935 | 0.0654 |  |  | 0.0612 |
| A207R | 0.0744 |  |  | 0.0891 |  |  |  |  | 0.0954 |  |
| G138F | 0.0851 |  |  | 0.106 |  |  |  | 0.0085 |  |  |
| G138M | 0.0757 |  |  | 0.0929 |  |  | 0.0632 |  |  |  |
| S154I | 0.111 |  |  | 0.106 | 0.119 |  | 0.0707 |  |  | 0.0685 |
| I110R | 0.048 | 0.0414 |  | 0.0559 | 0.0503 | 0.0692 |  |  | 0.0545 |  |
| E195L | 0.0946 |  |  | 0.0936 | 0.0501 | 0.0817 |  | 0.0542 |  |  |
| H76T | 0.0623 |  | 0.0686 | 0.07 |  |  |  | 0.0371 | 0.0558 | 0.0523 |
| H76F | 0.0765 |  |  | 0.0863 | 0.0673 | 0.077 | 0.0567 | 0.0533 | 0.0429 | 0.071 |
| N45G | 0.0821 |  | 0.0617 | 0.0926 |  | 0.0526 | 0.0547 | 0.0557 | 0.0595 | 0.0586 |
| G162N | 0.0947 |  | 0.0763 | 0.096 |  |  | 0.0518 |  |  | 0.0621 |

Same assay, conditions: temperature: 34 °C; time window: 0-4 h after rhamnose induction

| Variant | area with substrate ENLYFQV | area with substrate ENLYFQY | area with substrate ENLYFQC | area with substrate ENLYFQH | area with substrate ENLYFQM | area with substrate ENLYFQW | area with substrate ENLYFQQ | area with substrate ENLYFQP | area with substrate ENLYFQD | area with substrate ENLYFQE |
| --- | --- | --- | --- | --- | --- | --- | --- | --- | --- | --- |
| G35T | 0.0404 | 0.0463 |  |  |  |  |  |  |  |  |
| V210P |  | 0.0494 | 0.0703 | 0.0613 | 0.0544 | 0.0621 |  |  |  |  |
| S201E |  |  | 0.0987 | 0.0954 |  | 0.0611 | 0.0503 |  |  |  |
| V78N |  |  |  |  | 0.0474 | 0.0602 |  | 0.0629 |  |  |
| E25S |  | 0.0936 | 0.105 |  | 0.115 | 0.0733 |  | 0.0438 | 0.106 |  |
| Q97D | 0.0629 |  |  | 0.0689 |  |  |  |  |  |  |
| P93C |  |  | 0.127 | 0.0731 |  | 0.0639 |  | 0.0758 |  |  |
| I84H |  | 0.0266 | 0.0561 |  |  | 0.0544 |  |  | 0.0604 | 0.0611 |
| V220S |  |  |  | 0.0849 | 0.0899 | 0.0656 |  | 0.0597 |  |  |
| T119Q |  |  | 0.0257 |  |  |  |  |  |  |  |
| D27E |  | 0.0906 |  |  | 0.0974 | 0.0659 |  |  | 0.0671 |  |
| T181K | 0.0548 |  | 0.059 |  |  | 0.05 |  | 0.066 |  |  |
| L190D | 0.0817 | 0.0622 | 0.105 | 0.0642 | 0.0637 |  |  |  |  | 0.0702 |
| T176Q |  | 0.0763 |  |  | 0.0705 |  |  | 0.0623 | 0.0753 |  |
| V113W |  | 0.0782 | 0.0724 |  | 0.0583 |  | 0.0541 | 0.0687 |  |  |
| G153M | 0.0656 |  | 0.0452 |  | 0.0811 |  |  |  |  | 0.0651 |

| Variant | area with substrate ENLYFQV | area with substrate ENLYFQY | area with substrate ENLYFQC | area with substrate ENLYFQH | area with substrate ENLYFQM | area with substrate ENLYFQW | area with substrate ENLYFQQ | area with substrate ENLYFQP | area with substrate ENLYFQD | area with substrate ENLYFQE |
| --- | --- | --- | --- | --- | --- | --- | --- | --- | --- | --- |
| G153I |  | 0.0414 | 0.0496 |  | 0.0528 | 0.0369 |  |  |  |  |
| T115R |  | 0.108 | 0.114 |  | 0.119 | 0.0596 |  | 0.0558 |  |  |
| R102E |  |  |  | 0.0327 |  | 0.0397 |  |  |  |  |
| E103S | 0.0634 | 0.0798 |  | 0.101 |  | 0.0299 |  |  |  |  |
| E103I | 0.0515 | 0.0658 | 0.117 | 0.0764 | 0.0769 | 0.0623 |  |  |  |  |
| K66H |  | 0.0876 |  |  | 0.103 | 0.0575 | 0.0755 |  |  |  |
| A207R |  | 0.0778 |  | 0.064 | 0.0757 |  |  | 0.0711 |  |  |
| G138F |  |  |  |  |  | 0.0476 |  |  |  | 0.0547 |
| G138M |  |  | 0.0747 |  | 0.0673 |  |  |  |  |  |
| S154I |  |  |  |  |  |  |  |  |  | 0.0679 |
| I110R |  |  | 0.0489 |  |  | 0.0553 |  |  |  |  |
| E195L |  |  | 0.0889 |  |  |  | 0.059 |  | 0.0686 |  |
| H76T |  |  | 0.0751 |  |  | 0.0595 |  |  |  |  |
| H76F | 0.0611 | 0.0695 | 0.101 | 0.0807 | 0.0542 |  |  | 0.0519 | 0.0498 |  |
| N45G | 0.0798 |  | 0.0703 | 0.0661 | 0.0728 | 0.0456 | 0.0471 |  | 0.0656 |  |
| G162N |  | 0.0753 |  |  | 0.0947 |  |  |  |  |  |
